Measurements reported in PMC4336329 (PLoS ONE, 2015).
Out of some 310,000 compounds screened, about 14,000 (4.5%) showed an effect of 50% or more. Effects have a minus sign here. Some of the results follow.

Each molecule was assayed against human ether-à-go-go-related gene (hERG) potassium channel (human, UniProt Q12809) (assay: primary screen, population patch clamp on CHO cells stably expressing hERG).
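Further: peak tail current of the secondary pulse compared with the same well before compound.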

Chain of human ether-à-go-go-related gene (hERG) potassium channel (Q12809 whole entry, looked up): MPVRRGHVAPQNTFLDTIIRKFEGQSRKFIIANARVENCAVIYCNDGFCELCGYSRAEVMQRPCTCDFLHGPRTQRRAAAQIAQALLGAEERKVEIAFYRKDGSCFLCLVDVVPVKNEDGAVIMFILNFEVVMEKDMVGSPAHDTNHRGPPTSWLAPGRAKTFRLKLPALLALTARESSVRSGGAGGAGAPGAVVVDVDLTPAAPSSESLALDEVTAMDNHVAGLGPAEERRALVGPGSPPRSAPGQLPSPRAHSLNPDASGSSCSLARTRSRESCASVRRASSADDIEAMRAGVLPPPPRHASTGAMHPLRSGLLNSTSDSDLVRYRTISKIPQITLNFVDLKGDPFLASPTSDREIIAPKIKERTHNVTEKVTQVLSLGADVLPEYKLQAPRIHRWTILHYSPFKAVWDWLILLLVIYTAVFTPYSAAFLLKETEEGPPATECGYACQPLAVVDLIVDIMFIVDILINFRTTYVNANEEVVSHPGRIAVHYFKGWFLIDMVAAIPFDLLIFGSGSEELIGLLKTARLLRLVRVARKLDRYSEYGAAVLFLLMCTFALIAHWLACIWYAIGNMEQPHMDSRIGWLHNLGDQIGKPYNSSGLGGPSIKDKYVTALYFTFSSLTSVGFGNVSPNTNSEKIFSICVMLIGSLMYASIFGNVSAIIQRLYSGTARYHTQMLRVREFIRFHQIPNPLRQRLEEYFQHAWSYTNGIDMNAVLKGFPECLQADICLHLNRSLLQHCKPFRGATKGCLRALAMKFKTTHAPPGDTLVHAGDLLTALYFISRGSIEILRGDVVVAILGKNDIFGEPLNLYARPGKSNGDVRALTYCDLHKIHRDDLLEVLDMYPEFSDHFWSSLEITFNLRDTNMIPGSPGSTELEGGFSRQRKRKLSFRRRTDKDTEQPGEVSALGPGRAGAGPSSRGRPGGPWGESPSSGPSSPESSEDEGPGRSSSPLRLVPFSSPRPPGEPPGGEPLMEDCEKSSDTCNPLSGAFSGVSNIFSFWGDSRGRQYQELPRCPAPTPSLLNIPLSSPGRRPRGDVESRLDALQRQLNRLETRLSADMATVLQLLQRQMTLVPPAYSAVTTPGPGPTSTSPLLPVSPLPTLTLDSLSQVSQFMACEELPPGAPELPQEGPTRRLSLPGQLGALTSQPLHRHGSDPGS

Compound	hERG current change (%, negative = inhibition) at 10uM
COc1cccc(/C=N/NC(=O)c2ccc3nc[nH]c3c2)c1O	12.6%
Cn1c(CNC(=O)c2ccc(Cl)cc2)nnc1SCC(=O)NC1CCCC1	-3.79%
CCNC(=O)CN1C(=O)NC(Cc2ccccc2)(Cc2ccccc2)C1=O	-0.689%
Cc1ccc2c(c1)nc(-n1nc(C)cc1C)c1nnnn12	-1.26%
Cc1cc(N2CCN(S(=O)(=O)c3ccc4ccccc4c3)CC2)n2ncnc2n1	-77.7%
CNC(=O)C(NC(=O)Nc1ccc(C)cc1)C(C)(C)C (centres unmarked)	9.61%
CC(=O)Nc1ccc(NC(=O)CCCn2cnc3ccccc3c2=O)cc1	19.2%
Fc1ccc2nc(C(F)(F)F)cc(N3CCOCC3)c2c1	8.72%
O=C(O)c1cccc(Sc2cc(Cl)ccc2C(=O)O)c1	12.2%
COc1ccccc1-c1noc(-c2ccccc2C(=O)Nc2cccnc2)n1	4.58%
O=[N+]([O-])c1ccc(Cl)c2cccnc12	23.6%
CCCNC(=O)NS(=O)(=O)c1ccc(Cl)cc1	8.45%
CC(/C=N/NC(=O)Cn1cnc2c1c(=O)n(C)c(=O)n2C)=C\c1ccco1	-10.2%
Cc1cc(C)c(N2C(=O)C3C4CC(=O)C(c5ccccc54)C3C2=O)c(C)c1 (centres unmarked)	3.52%
Cc1cnc(C)c(N2CCN(Cc3cn(C)nc3-c3cccc(Cl)c3)CC2)n1	-49.6%
CC(=O)c1c(C)[nH]c(C(=O)OCC(=O)Nc2ncc(Cl)c(C)c2Cl)c1C	-4.17%
FC(F)(F)c1ccc(Oc2ccc(Cl)cc2Br)nc1	20.1%
COc1ccc2nc3oc(C(=O)Nc4ccc(OC)c(OC)c4)cc3cc2c1	10.8%
CCc1ccc(N(CC(=O)NC(C)(C)C)C(=O)CCC(=O)Nc2ccccn2)cc1	10.5%
CC(Sc1ccc2nnc(-c3ccc(F)cc3)n2n1)C(=O)O (centres unmarked)	-3.43%
COc1ccc(CNC(=O)C(C)NCc2ccccc2Cl)cc1.Cl (centres unmarked)	0.444%
COc1ccc(C(=O)/C=C/c2ccccc2OC)c(OC(=O)c2ccc([N+](=O)[O-])cc2)c1	14.9%

Compound	hERG current change (%, negative = inhibition) at 10uM
COc1ccc(CC(=O)N2CCCc3ccccc32)cc1	1.07%
O=S(=O)(c1cccc(F)c1)N1CCN(Cc2ccc3c(c2)OCO3)CC1	-35.8%
Cc1csc(=O)n1CCC(=O)OCc1nnc(-c2ccccc2)o1	-8.45%
CCCCNC(=O)c1onc(CSc2ccc(F)cc2)c1C(=O)NCCCC	-10.2%
COC(=O)c1sccc1NC(=O)/C=C/c1ccc(Cl)cc1	-11.2%
CCc1ccc2[nH]c(=O)c(C(c3nnnn3CC3CCCO3)N3CCN4CCCC4C3)cc2c1 (centres unmarked)	-10.4%
O=C(c1cccs1)N1CCCC(c2nc3c(nnn3Cc3ccccc3)c(=O)[nH]2)C1 (centres unmarked)	-33.5%
COc1cc(OC)cc(C(=O)N[C@H](C(=O)OCC(=O)Nc2cccc(F)c2)C(C)C)c1	-5.55%
CNC(=S)N1CCN(c2nc3ccccc3s2)CC1	-11.4%
COc1ccc(S(=O)(=O)Nc2cccc(-c3ccc4nncn4n3)c2)c(OC)c1	-40.6%
c1coc(-c2nnc(SCc3cn4ccccc4n3)o2)c1	-29.7%
Cc1csc(NC(=O)CSc2nnc(Cc3cccn3C)n2CCc2ccccc2)n1	-4.35%
COc1cc(NC(=O)c2ccc(C(=O)c3ccccc3)cc2)cc(OC)c1OC	8.62%
COc1cccc(CN(CC(=O)NC2CCCCC2)C(=O)c2csnn2)c1	16.2%
O=C(NNC(=S)Nc1ccc(Cl)cc1)c1ccccc1OC(F)F	16.7%
CCCCN(CCCC)C1=Nc2ccccc2N/C1=C(/C#N)C(=O)OCC	-3.64%
COc1ccccc1/C=C/c1nc(S(=O)(=O)c2ccccc2)c(N2CCC(C(N)=O)CC2)o1	-13%
CC(C)n1cnc2c(Nc3cccc(Cl)c3)nc(NCCCO)nc21	-49.5%
Cn1cnnc1SCC(=O)NCCc1ccccc1	17.1%
COc1ccc(CNC(=O)CN2CCN(S(=O)(=O)c3ccccc3)CC2)cc1	-9.14%
C/C(=N/OC(=O)c1ccc(C(F)(F)F)cc1)c1oc(C)nc1C	9.14%
CCOC(=O)c1c(NC(=O)/C=C/c2ccco2)sc(C)c1C	14.4%
